This note sets out measurements from PubChem BioAssay AID894 (National Center for Advancing Translational Sciences (NCATS), 2007).

SMILES strings stand for the structures. Several values for one entry are separate records, joined by “and”; a condition that tells them apart may be missing. Equal entries are not always repeated. Out of some 150,000 compounds screened, about 6,500 (4.3%) were called active. About 12% were inconclusive and are not listed. The call rests on the fitted dose curve; in most records, active means well fitted inhibition curve with a large enough effect (not every such curve was filed as active); inconclusive means small, poorly fitted or top-dose-only effect, or another doubt; inactive means no such curve, though single readings can be large or run the other way. This is a selection; strong and weak results do not stand in their true shares. Some compounds were tested as several samples or in several runs, with calls that do not always agree.
On the % scale 0 is the no-effect control and ±100 the full control effect; potency means the concentration at half of the fitted maximal effect.

Chain of UniProt P15428 (P15428 whole entry, looked up): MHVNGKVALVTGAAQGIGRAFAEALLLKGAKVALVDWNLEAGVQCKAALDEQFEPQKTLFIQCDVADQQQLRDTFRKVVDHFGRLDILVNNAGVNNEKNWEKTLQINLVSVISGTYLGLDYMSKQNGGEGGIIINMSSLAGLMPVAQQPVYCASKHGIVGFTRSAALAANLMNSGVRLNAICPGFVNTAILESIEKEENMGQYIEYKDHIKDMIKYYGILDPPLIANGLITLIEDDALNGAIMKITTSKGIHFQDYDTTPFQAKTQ

This assay deals with 15-hydroxyprostaglandin dehydrogenase [NAD(+)] (Homo sapiens) (UniProt P15428). Put plainly: qHTS Assay for Inhibitors of HPGD (15-Hydroxyprostaglandin Dehydrogenase). The following applies: purified HPGD, NADH fluorescence kinetic, PGE2 substrate; activity change, negative = inhibition: hits give low values. The method in brief:
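20 nM HPGD preincubated 15 min at room temperature with compound in 50 mM Tris-HCl pH 8, 0.01% Tween 20. Started with 1 mM NAD+ and 30 uM prostaglandin E2; NADH fluorescence (360/450 nm) read 5 times over 30-s intervals, last minus first.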
(In general: qHTS replaces the single test concentration by a dilution series.)
For `COc1ccccc1NC(=O)c1sc2ncn(Cc3cccc4ccccc34)c(=O)c2c1C`, the activity change, negative = inhibition was inactive: 275%. `CN1CCC[C@H]1c1cccnc1`: the activity change, negative = inhibition is inactive: -3.18% and inactive: 6.49% and inactive: -17.6%.

As to `CC(Cc1ccccc1)C(=O)N(C)Cc1ccccc1` (stereo unspecified), the activity change, negative = inhibition was inactive: -12.5%. On the same count and under the same terms, in the case of `CN(C)c1ccc(/C=C2\C(=O)Nc3ccccc32)cc1` it was inactive: -22.9%; in that of `COc1ccc(-c2cc(C(=O)N/N=C/c3ccc4c(c3)OCO4)c3ccccc3n2)c(OC)c1`, inactive: 55.2%. Still for that read-out and setting: as for `C[C@H]1c2cccc(O)c2C(O)=C2C(=O)[C@]3(O)C(O)=C(C(N)=O)C(=O)[C@@H](N(C)C)[C@@H]3[C@@H](O)[C@@H]21`, the figure is inactive: -18.1%.

As to `O=C(c1cc2nc(C3CC3)cc(C(F)F)n2n1)N1CCOCC1`, the Potency is active: 31.6 µM. Take `COc1ccc(S(=O)(=O)N(CCCN2CCCC2=O)Cc2cc3c(C)ccc(C)c3[nH]c2=O)cc1`: the activity change, negative = inhibition was inactive: 85.8%. On to `COc1cccc(-n2c(SCC(=O)OC(C)C)nnc2-c2cccnc2)c1`, for which the Potency is active: 22.4 µM.

As to `COc1ccc(Br)cc1C(=O)Nc1ccc(N2CCN(S(C)(=O)=O)CC2)cc1`, the activity change, negative = inhibition is inactive: 36.3%.

Consider `C#CCn1c(=NC(=O)c2ccc(Cl)s2)sc2cccc(OC)c21`, for which the activity change, negative = inhibition was inactive: 148%. Still for that read-out and setting: in the case of `COC(=O)c1sc2ccccc2c1NC(=O)c1ccc(S(=O)(=O)N2CC(C)CC(C)C2)cc1` (stereo unspecified) it was inactive: 788%; in that of `COC(=O)CNC(=O)C1(C)C=CCN1C(=O)c1ccccc1` (stereo unspecified), inactive: -15.2%; in that of `COc1ccc(S(=O)(=O)N(CCCN2CCCC2=O)Cc2cc3cc(C)c(C)cc3[nH]c2=O)cc1`, inactive: 44.6%. In the case of `O=C(CSc1ccc(-c2ccc(F)cc2)nn1)N1CCCCC1`, the Potency is active: 15.8 µM. Same read-out and setting: in the case of `CC1CCCN(c2ccc(C(=O)OCn3nnc4ccccc4c3=O)cc2[N+](=O)[O-])C1` (stereo unspecified) it was active: 15.8 µM. Turning to `Cc1cc(-c2ccc(Cl)cc2)c(C#N)c(N)n1`, the activity change, negative = inhibition was inactive: 43.3%. On the same count and under the same terms, in the case of `COc1ccc2c(c1)C(=O)[C@H](O)[C@@H](c1ccc(OC)c(Br)c1)O2` it was inactive: -13.4%; in that of `N[C@H](Cc1cc(I)c(Oc2ccc(O)c(I)c2)c(I)c1)C(=O)O`, inactive: -3.02%. On the same count and under the same terms, as for `C[C@H]1[C@@H](O)[C@@H](C)\C=C/C=C\C=C/C=C\C=C/C=C\C=C/[C@@H](O[C@H]2O[C@@H](C)[C@@H](O)[C@@H](N)[C@@H]2O)C[C@@H]2O[C@](O)(C[C@@H](O)C[C@@H](O)[C@@H](O)CC[C@@H](O)C[C@@H](O)CC(=O)O[C@H]1C)C[C@@H](O)[C@H]2C(=O)O` (stereo in doubt), the figure is inactive: -4.08%. On to `COC1=CC(=O)C[C@@H](C)[C@]12Oc1c(Cl)c(OC)cc(OC)c1C2=O`, for which the activity change, negative = inhibition was inactive: -17.2%. In the case of `COc1ccc(Br)c(C(=O)NCCC(C)C)c1`, the Potency was active: 12.6 µM.

Consider `O=C(Nc1ccccn1)c1ccc([N+](=O)[O-])o1`, for which the activity change, negative = inhibition was inactive: 142%. Same read-out and setting: as for `COc1ccccc1N(CC(O)Cn1c2ccccc2c2ccccc21)S(=O)(=O)c1ccccc1` (stereo unspecified), the figure is inactive: 890%. Take `O=c1[nH]c(C(F)(F)F)nc2c1nnn2Cc1ccccc1F`: the Potency is active: 17.8 µM.

Turning to `O=C(O)CCCCCCCCCC(=O)c1cccs1`, the Potency is active: 15.8 µM. As to `Cc1cccc(NC(=O)/C(C#N)=C/c2cn(CC(=O)NCc3ccco3)c3ccccc23)c1C`, the activity change, negative = inhibition is inactive: 48.5%. Same read-out and setting: as for `O=C(N/N=C/C(Br)=C/c1ccccc1)c1n[nH]c2c1CCC2`, the figure is inactive: -17.9%; as for `CCOC(=O)c1oc2ccccc2c1NC(=O)c1ccc2c(c1)OCO2`, inactive: 75.1%; as for `CCOC(=O)C(C)Oc1cccc2c(=O)n(CC(=O)NCc3ccc4c(c3)OCO4)ccc12` (stereo unspecified), inactive: 45.5%. On the same count and under the same terms, in the case of `CN1CCN2c3ccccc3Cc3ccccc3C2C1` (stereo unspecified) it was inactive: -13.1% and inactive: -5.99%; in that of `CC(C)NNC(=O)c1ccncc1`, inactive: -20%. Same read-out and setting: in the case of `CCOC(=O)c1ccc(N2Cc3ccccc3C2=NC(=O)c2cccs2)cc1` it was inactive: 278%; in that of `CC(=O)N=c1sc(S(N)(=O)=O)nn1C`, inactive: -16%. Consider `O=C1c2cccc(O)c2C(=O)c2c(O)cccc21`, for which the activity change, negative = inhibition was inactive: -0.0357% and inactive: -15.3%. On the same count and under the same terms, in the case of `CCOC(=O)/C=c1\s/c(=C\c2ccc(C#N)cc2)c(=O)n1CC(=O)NCc1ccco1` it was inactive: 38.2%; in that of `COc1ccc(-c2cc(=O)c3c(OC)c(OC)c(OC)c(OC)c3o2)cc1OC`, inactive: -29.8%; in that of `CN(Cc1cnc2nc(N)nc(N)c2n1)c1ccc(C(=O)NC(CCC(=O)O)C(=O)O)cc1` (stereo unspecified), inactive: -20.3%. Take `COc1ccccc1N(O)C1CC(=O)N(c2ccc(Br)cc2)C1=O` (stereo unspecified): the Potency is active: 28.2 µM. Turning to `C=CCn1c(=NC(=O)c2ccco2)sc2cc(C(=O)OC)ccc21`, the activity change, negative = inhibition is inactive: 194%. As to `CCCCC/C=C\C/C=C\CCCCCCCC(=O)O`, the activity change, negative = inhibition is inactive: -11.6%. On the same count and under the same terms, as for `O=C(O)c1cc2cc(F)ccc2[nH]1`, the figure is inactive: -26.9%; as for `COc1ccccc1/C=C1\SC(=O)N(CCC(=O)NNC(=O)c2ccccc2Cl)C1=O`, inactive: 48.1%; as for `CN(C(=O)CCCOc1ccc2[nH]c(=O)ccc2c1)C1CCCCC1`, inactive: -22.4%.

On to `Cc1ccsc1/C=C1/SC(N2CCOCC2)=NC1=O`, for which the activity change, negative = inhibition was inactive: -13.8%. For `COc1ccc(/C=C(/NC(=O)c2ccccc2)C(=O)N/N=C/c2sccc2C)cc1`, the activity change, negative = inhibition was inactive: -26%. The same measure, in the same setting: as for `COc1ccc(Br)c2oc(SC)cc(=O)c12`, the figure is inactive: -28.6%. On the same count and under the same terms, in the case of `Cc1ccc(C)c2[nH]c(=O)c(CN(CC3CCCO3)S(=O)(=O)c3ccc4c(c3)OCCO4)cc12` (stereo unspecified) it was inactive: 55.3%.

`Cc1ccc(CNC(=O)[C@H](C)[C@@H]2C[C@@]2(C)[C@@H](NC(=O)OCc2ccccc2)c2ccccc2)o1`: the activity change, negative = inhibition was inactive: -19.3%. Take `Cc1cc2nc(-c3cccc(NC(=O)c4ccc(Br)o4)c3)oc2cc1C`: the activity change, negative = inhibition was inactive: 33%.

As to `O=C(c1cc2ccccc2o1)N1CCCCCC1`, the Potency was active: 7.94 µM. As for `O=c1cc(-c2ccccc2Cl)oc2c(Br)ccc(O)c12`, the activity change, negative = inhibition was inactive: -27.9%.

`CCOc1ccc2nc(NC(=O)c3ccc(OC)c(S(=O)(=O)N4CCOCC4)c3)sc2c1`: the activity change, negative = inhibition is inactive: 569%. With `C[C@@H](C(=O)O)c1ccc(C(=O)c2cccs2)cc1`, the activity change, negative = inhibition was inactive: -17.5%. On the same count and under the same terms, as for `N=C(N)SCc1nc2ccccc2c(=O)n1-c1ccccc1`, the figure is inactive: -24.9%.

Regarding `O=C(NCc1ccccc1)c1cc2ccccc2o1`, the Potency was active: 17.8 µM.

Regarding `Cc1ccc(S(=O)(=O)N(CCCN2CCCC2=O)Cc2cc3c(C)ccc(C)c3[nH]c2=O)cc1`, the activity change, negative = inhibition is inactive: 30.8%. On the same count and under the same terms, in the case of `COc1ccc(-c2cc(=O)c3cc(F)ccc3[nH]2)cc1` it was inactive: -15.6%. Still for that read-out and setting: as for `CCCNC(=O)C1CCN(S(=O)(=O)c2c(C)noc2/C=C\c2ccc(OC)cc2)CC1`, the figure is inactive: 130%. Turning to `Cc1ccc(-c2cnn(-c3cccc([N+](=O)[O-])c3)c2N)cc1`, the Potency is active: 35.5 µM.

For the compound `Oc1cc2c(cc1O)C(c1ccccc1)CNCC2` (stereo unspecified), the activity change, negative = inhibition was inactive: -13.7%. As for `CC(=O)OCC1=C(C(=O)O)N2C(=O)[C@@H](NC(=O)Cc3cccs3)[C@@H]2SC1`, the activity change, negative = inhibition was inactive: -7.04%. For the compound `COc1cc(/C=C/C(=O)/C=C(O)/C=C/c2ccc(O)c(OC)c2)ccc1O`, the Potency was active: 22.4 µM.

For the compound `COc1cc2c(cc1OC)C(C)N(C(=O)c1cc3c(=O)oc4ccc(C)cc4c3s1)CC2` (stereo unspecified), the activity change, negative = inhibition is inactive: 368%.

Take `NC[C@@H]1O[C@H](C23CC4CC(CC(C4)C2)C3)Cc2c1ccc(O)c2O`: the activity change, negative = inhibition is inactive: -15.4%. On the same count and under the same terms, in the case of `C[C@@](Cc1ccc(O)c(O)c1)(NN)C(=O)O` it was inactive: -3.01%. Consider `CCN(CC)c1ccc(NC(=O)c2ccccc2Br)cc1S(=O)(=O)Nc1ccccc1OC`, for which the Potency was active: 2.24 µM. Consider `CCOC(=O)O[C@@H](C)OC(=O)[C@@H]1N2C(=O)[C@@H](NC(=O)[C@@H](N)c3ccccc3)[C@H]2SC1(C)C`, for which the activity change, negative = inhibition is inactive: -9.14%.

As for `COc1ccc(/C=C(\NC(=O)c2ccc(OC)c(OC)c2)C(=O)NCCc2c[nH]c3ccccc23)cc1`, the activity change, negative = inhibition is inactive: -11.3%. Take `O=C(c1ccc(F)cc1)C1CCN(CCn2c(=O)[nH]c3ccccc3c2=O)CC1`: the activity change, negative = inhibition was inactive: -17%. Same read-out and setting: as for `C[C@H](C(=O)O)c1cccc(C(=O)c2ccccc2)c1`, the figure is inactive: -16.7%; as for `Clc1ccc(COn2c(-c3ccc(Cl)cc3)nc3ccccc32)cc1`, inactive: 32%; as for `COc1cccc([C@@H]2Oc3ccc(OC)cc3C(=O)[C@H]2OC(=O)NCc2ccc3c(c2)OCO3)c1`, inactive: -23.2%. The same measure, in the same setting: in the case of `N[C@@H](Cc1cc(I)c(Oc2ccc(O)c(I)c2)c(I)c1)C(=O)O` it was inactive: -10.3%; in that of `CCOC(=O)c1c(C)n(C)c2ccc(OCCN(C)C)cc12`, inactive: -3.75%. Same read-out and setting: as for `N#Cc1cc2nc(O)c(O)nc2cc1[N+](=O)[O-]`, the figure is inactive: -25.7%. Regarding `COc1cc(C(C)=O)ccc1Oc1ncnc2c1cnn2-c1ccc(F)cc1`, the Potency was active: 15.8 µM. Regarding `CC(=O)COc1ccc2c3c(c(=O)oc2c1)CCCC3`, the activity change, negative = inhibition was inactive: 222%. Regarding `Nc1nc2ncc(CNc3ccc(C(=O)N[C@@H](CCC(=O)O)C(=O)O)cc3)nc2c(=O)[nH]1`, the activity change, negative = inhibition is inactive: -17.6%. Regarding `Clc1ccc(-c2nc3ccccc3n2OCc2ccccc2)cc1`, the activity change, negative = inhibition was inactive: 33.1%. In the case of `O=C(CCCn1c(SCC(=O)c2ccc(O)c(O)c2)nc2ccccc2c1=O)NCC1CCCO1` (stereo unspecified), the Potency was active: 5.01 µM. Regarding `Clc1cccc2c1Sc1ccccc1CC2N1CCNCC1` (stereo unspecified), the activity change, negative = inhibition is inactive: 44.5%. Consider `CC1(C)CC(=O)C(C(c2ccco2)C2C(=O)CC(C)(C)CC2=O)C(=O)C1`, for which the Potency was active: 7.94 µM. On the same count and under the same terms, in the case of `O=C(COC(=O)c1ccc2c(c1Cl)C(=O)c1ccccc1C2=O)NC1CC1` it was active: 7.94 µM. On to `COc1ccc(-c2cc(=O)c3cc(C)ccc3[nH]2)cc1`, for which the activity change, negative = inhibition was inactive: -21.4%. On the same count and under the same terms, in the case of `O=C(Nc1cccc2ccccc12)c1onc2c1CCCC2` it was inactive: 37.7%.
